Data on 1 molecule can be found in US12533408B2, “Treatment regimen for the treatment of autoimmune disorders” (Merck Patent GmbH, priority 2020, dated 2026).

Test [1] deals with Influenza strain H1N1 (BrisbaneA).
Another test concerns seasonal influenza. Further details: species or system influenza A and B. The settings on record: in vivo.
Test [2] concerns Influenza strain H3N2 (Kansas A).
Test [3] deals with Influenza strain H3N2 (SingaporeA). The settings on record: 3 patients.
Test [4] concerns Influenza strain H1N1 (MichiganA). Particulars: 3 patients.

Several values for one entry are separate records, joined by “and”; a condition that tells them apart may be missing. Equal entries are not always repeated. A value given as a limit tells only on which side of the number the result lay.

`Nc1nc(Cl)nc2c1ncn2[C@H]1C[C@H](O)[C@@H](CO)O1` [cladribine tablets, Cladribine]: in test [1] (H1N1 (BrisbaneA), 9 patients), the 2-fold change came out at 22%, the 4-fold change is reported as 11%, the Post-vacc seroprotection is reported as 100% and the Pre-vacc seroprotection is 100%. The “H1N1 (BrisbaneA) antibody titer (HAI)” value in test [1] (in vivo) is reported as 80. Moreover, in the test with seasonal influenza, the “post-vaccination antibody titers against seasonal influenza (HAI), seroprotection limit” value is no less than 40 and the “rise in titers against one Influenza strain” value is recorded as no less than 4 fold. Besides, in test [2] (H3N2 (Kansas A), 8 patients), the 2-fold change turned out to be 38%, the 4-fold change was found to be 13%, the Post-vacc seroprotection was 100% and the Pre-vacc seroprotection was 100%. Besides, the “H3N2 (Kansas A) antibody titer (HAI)” value in test [2] (in vivo) is 40 and 80. Also, in test [3], the 2-fold change is 67%, the 4-fold change amounted to 0%, the Post-vacc seroprotection turned out to be 100% and the Pre-vacc seroprotection was found to be 33%. In test [4], the 2-fold change was determined as 33%, the 4-fold change is on record as 0%, the Post-vacc seroprotection is recorded as 100% and the Pre-vacc seroprotection is 100%.
